Results published in patent publication US8669255B2, “Substituted octahydropyrrolo[1,2-a]pyrazines as calcium channel blockers” (AbbVie Inc., priority 2011, dated 2014).

The compounds below were run against human Cav2.2 (Homo sapiens, UniProt Q00975) (assay: In vitro assessment of calcium channel activity using FLIPR (Ca2+ influx in IMR32 cells)). Conditions: IMR32 cells endogenously expressing human Cav2.2; 60 minute pre-incubation; 2 μM nifedipine; depolarized with 80 mM KCl; average of at least two runs unless marked (*).
Type: cell-based
Procedure: (i) In Vitro Assessment of Calcium Channel Activity Using FLIPR
The IMR32 cells were maintained in MEM media containing 10% (v/v) FBS, 1% (v/v) antibiotic/antimitotic, 1% (v/v) sodium pyruvate and 1% (v/v) MEM NEAA. Following dissociation in 0.05% (v/v) trypsin/EDTA, cells were seeded into black 1×96-well plates (Corning Cellbind) at a density of 1-1.2×10^5 cells/well and incubated in the maintenance media above for 48 hours at 37° C. Immediately prior to performing the assay the media was removed and cells were loaded for 1.5 hours with 1× Calcium 4 dye prepared in HBSS (137 mM NaCl, 5.4 mM KCl, 0.25 mM Na2HPO4, 0.44 mM KH2PO4, 1.3 mM CaCl2, 1 mM MgSO4, 4.2 mM NaHCO3) containing HEPES pH 7.4 at room temperature. After dye loading and a subsequent 60 minute pre-incubation with compounds (full log dilutions from 10 μM to 0.1 nM) in the presence of 1.3 mM CaCl2 and 2 μM nifedipine to block endogenous L-type channels, the external Ca^2+concentration was increased to 5 mM CaCl2 and the cells concomitantly depolarized with 80 mM KCl to assay channel activity. To determine the IC50 values, the percent inhibition of the compound at each concentration was determined relative to the activity in the absence of inhibitor, and data was fitted using non-linear regression sigmoidal dose response curve analysis with GraphPad Prism®. Unless otherwise indicated (*), the reported values are average values from at least two runs (i.e., n≧2).
For `O=S(=O)(Cc1ccc(Cl)cc1)N[C@@H]1CCN2CCN(c3cccc(C(F)(F)F)n3)C[C@@H]12` (relative stereo) [Example 96, 1-(4-chlorophenyl)-N-{(8R*,8aS*)-2-[6-(trifluoromethyl)pyridin-2-yl]-octahydropyrrolo[1,2-a]pyrazin-8-yl}methanesulfonamide], the IC50 was 1.83 µM. `O=S(=O)(Cc1ccc(Cl)cc1)N[C@@H]1CCN2CCN(c3cccc(C(F)(F)F)n3)C[C@H]12` (relative stereo) [Example 97, 1-(4-chlorophenyl)-N-{(8R*,8aR*)-2-[6-(trifluoromethyl)pyridin-2-yl]-octahydropyrrolo[1,2-a]pyrazin-8-yl}methanesulfonamide] gave an IC50 of 1.37 µM. With `O=C(N[C@@H]1CCN2CCN(c3cccc(C(F)(F)F)n3)C[C@@H]12)c1cccc(F)c1` (relative stereo) [Example 98, 3-fluoro-N-{(8R*,8aS*)-2-[6-(trifluoromethyl)pyridin-2-yl]-octahydropyrrolo[1,2-a]pyrazin-8-yl}benzamide] the IC50 was 2.39 µM. Compound `O=C(N[C@@H]1CCN2CCN(c3cccc(C(F)(F)F)n3)C[C@H]12)c1cccc(F)c1` (relative stereo) [Example 99, 3-fluoro-N-{(8R*,8aR*)-2-[6-(trifluoromethyl)pyridin-2-yl]octahydro-pyrrolo[1,2-a]pyrazin-8-yl}benzamide] has an IC50 of 2.67 µM. For `O=C(c1cccc(C(F)(F)F)c1)N1CCN2CC[C@@H](Oc3ccc(Cl)cn3)[C@@H]2C1` (relative stereo) [Example 100, [(8R*,8aS*)-8-[(5-chloropyridin-2-yl)oxy]hexahydropyrrolo[1,2-a]pyrazin-2(1H)-yl][3-(trifluoromethyl)phenyl]methanone], the IC50 was 2.16 µM. For `O=C(c1cccc(C(F)(F)F)c1)N1CCN2CC[C@@H](Oc3ccc(Cl)cn3)[C@H]2C1` (relative stereo) [Example 101, [(8R*,8aR*)-8-[(5-chloropyridin-2-yl)oxy]hexahydropyrrolo[1,2-a]pyrazin-2(1H)-yl][3-(trifluoromethyl)phenyl]methanone], the IC50 was 3.67 µM. `FC(F)(F)c1cccc(N2CCN3CC[C@@H](Oc4ccc(Cl)cn4)[C@H]3C2)n1` (relative stereo) [Example 102, (8R*,8aR*)-8-[(5-chloropyridin-2-yl)oxy]-2-[6-(trifluoromethyl)pyridin-2-yl]octahydropyrrolo[1,2-a]pyrazine] showed an IC50 of 1.06 µM. For `FC(F)(F)c1ccc(N2CCN3CC[C@@H](Oc4ccc(Cl)cn4)[C@H]3C2)nc1` (relative stereo) [Example 103, (8R*,8aR*)-8-[(5-chloropyridin-2-yl)oxy]-2-[5-(trifluoromethyl)pyridin-2-yl]octahydropyrrolo[1,2-a]pyrazine], the IC50 was 2.3 µM. `FC(F)(F)c1ccnc(N2CCN3CC[C@@H](Oc4ccc(Cl)cn4)[C@H]3C2)c1` (relative stereo) [Example 104, (8R*,8aR*)-8-[(5-chloropyridin-2-yl)oxy]-2-[4-(trifluoromethyl)pyridin-2-yl]octahydropyrrolo[1,2-a]pyrazine] gave an IC50 of 7.29 µM. `O=C1[C@H]2C[C@@H](Oc3cnc(C4CC4)cn3)CN2CCN1Cc1cccc(C(F)(F)F)c1` (single isomer, unassigned) [Example 164] was tested, and the IC50 was 3.53 µM. In the case of `O=C1[C@@H]2C[C@@H](Oc3cnc(C4CC4)cn3)CN2CCN1Cc1ccc(C(F)(F)F)cc1` (single isomer, unassigned) [Example 166], the IC50 is reported as 2.46 µM. `O=C1[C@H]2C[C@@H](Oc3cnc(C4CC4)cn3)CN2CCN1Cc1ccc(C(F)(F)F)cc1` (single isomer, unassigned) [Example 167] was tested, and the IC50 was 3.4 µM. With `O=C1[C@@H]2C[C@@H](Oc3cnc(C4CC4)cn3)CN2CCN1c1cccc(C(F)(F)F)n1` (single isomer, unassigned) [Example 170] the IC50 was 7.56 µM. `O=C1[C@@H]2C[C@@H](Oc3cnc(C4CC4)cn3)CN2CCN1c1ccc(C(F)(F)F)cn1` (single isomer, unassigned) [Example 171] gave an IC50 of over 30 µM. Work on `O=C1[C@H]2C[C@@H](Oc3cnc(C4CC4)cn3)CN2CCN1c1ccc(C(F)(F)F)cn1` (single isomer, unassigned) [Example 172] yielded an IC50 of 9.4 µM. With `O=C1[C@H]2C[C@@H](Oc3cnc(C4CC4)cn3)CN2CCN1c1cccc(C(F)(F)F)n1` (single isomer, unassigned) [Example 173] the IC50 was 8.3 µM. `CC(C)(C)OC(=O)N1CCN2C[C@@H](NC(=O)c3ccc(F)cc3)C[C@H]2C1` [Example 1, tert-butyl (7S,8aS)-7-[(4-fluorobenzoyl)amino]hexahydropyrrolo[1,2-a]pyrazine-2(1H)-carboxylate] showed an IC50 of over 30 µM. Compound `O=C(N[C@H]1C[C@H]2CN(C(=O)c3cccc(C(F)(F)F)c3)CCN2C1)c1ccc(F)cc1` [Example 2, 4-fluoro-N-{(7S,8aS)-2-[3-(trifluoromethyl)benzoyl]octahydropyrrolo[1,2-a]pyrazin-7-yl}benzamide] has an IC50 of 7.22 µM. Work on `O=C(N[C@H]1C[C@H]2CN(C(=O)c3ccc(C(F)(F)F)cc3)CCN2C1)c1ccc(F)cc1` [Example 3, 4-fluoro-N-{(7S,8aS)-2-[4-(trifluoromethyl)benzoyl]octahydropyrrolo[1,2-a]pyrazin-7-yl}benzamide] yielded an IC50 of 12.5 µM. With `O=C(N[C@H]1C[C@H]2CN(C(=O)c3cccc(C(F)(F)F)c3)CCN2C1)c1ccc(Cl)cc1` [Example 4, 4-chloro-N-{(7S,8aS)-2-[3-(trifluoromethyl)benzoyl]octahydropyrrolo[1,2-a]pyrazin-7-yl}benzamide] the IC50 was 4.22 µM. For `O=C(N[C@H]1C[C@H]2CN(C(=O)c3ccc(C(F)(F)F)cc3)CCN2C1)c1ccc(Cl)cc1` [Example 5, 4-chloro-N-{(7S,8aS)-2-[4-(trifluoromethyl)benzoyl]octahydropyrrolo[1,2-a]pyrazin-7-yl}benzamide], the IC50 was 6.88 µM. In the case of `CC(C)(C)NC(=O)CN1CCN2C[C@@H](NC(=O)c3ccc(Cl)c(Cl)c3)C[C@H]2C1` [Example 6, N-{(7S,8aS)-2-[2-(tert-butylamino)-2-oxoethyl]octahydropyrrolo[1,2-a]-pyrazin-7-yl}-3,4-dichlorobenzamide], the IC50 is reported as 10.5 µM. For `O=C(N[C@H]1C[C@H]2CN(C(=O)c3cccc(C(F)(F)F)c3)CCN2C1)c1ccc(F)c(Cl)c1` [Example 7, 3-chloro-4-fluoro-N-{(7S,8aS)-2-[3-(trifluoromethyl)benzoyl]-octahydropyrrolo[1,2-a]pyrazin-7-yl}benzamide], the IC50 was 2.53 µM. `O=C(N[C@H]1C[C@H]2CN(C(=O)c3ccc(C(F)(F)F)cc3)CCN2C1)c1ccc(F)c(Cl)c1` [Example 8, 3-chloro-4-fluoro-N-{(7S,8aS)-2-[4-(trifluoromethyl)benzoyl]-octahydropyrrolo[1,2-a]pyrazin-7-yl}benzamide] was tested, and the IC50 was 2.12 µM. For `O=C(N[C@H]1C[C@H]2CN(C(=O)c3cccc(C(F)(F)F)c3)CCN2C1)c1ccc(Cl)cc1F` [Example 9, 4-chloro-2-fluoro-N-{(7S,8aS)-2-[3-(trifluoromethyl)benzoyl]octahydro-pyrrolo[1,2-a]pyrazin-7-yl}benzamide], the IC50 was 5.37 µM. Compound `O=C(N[C@H]1C[C@H]2CN(C(=O)c3ccc(Cl)cc3)CCN2C1)c1cccc(C(F)(F)F)c1` [Example 10, N-[(7S,8aS)-2-(4-chlorobenzoyl)octahydropyrrolo[1,2-a]pyrazin-7-yl]-3-(trifluoromethyl)benzamide] has an IC50 of 5.9 µM. Work on `O=C(N[C@H]1C[C@H]2CN(C(=O)c3ccc(F)cc3)CCN2C1)c1cccc(C(F)(F)F)c1` [Example 11, N-[(7S,8aS)-2-(4-fluorobenzoyl)octahydropyrrolo[1,2-a]pyrazin-7-yl]-3-(trifluoromethyl)benzamide] yielded an IC50 of 11.8 µM. For `O=C(N[C@H]1C[C@H]2CN(C(=O)c3ccc(F)cc3Cl)CCN2C1)c1cccc(C(F)(F)F)c1` [Example 12, N-[(7S,8aS)-2-(2-chloro-4-fluorobenzoyl)octahydropyrrolo[1,2-a]pyrazin-7-yl]-3-(trifluoromethyl)benzamide], the IC50 was 11.5 µM. With `O=C(N[C@H]1C[C@H]2CN(C(=O)c3cccnc3)CCN2C1)c1cccc(C(F)(F)F)c1` [Example 13, N-[(7S,8aS)-2-(pyridin-3-ylcarbonyl)octahydropyrrolo[1,2-a]pyrazin-7-yl]-3-(trifluoromethyl)benzamide] the IC50 was over 30 µM. `O=C(N[C@H]1C[C@H]2CN(C(=O)c3ccc(Cl)cc3F)CCN2C1)c1cccc(C(F)(F)F)c1` [Example 14, N-[(7S,8aS)-2-(4-chloro-2-fluorobenzoyl)octahydropyrrolo[1,2-a]pyrazin-7-yl]-3-(trifluoromethyl)benzamide] gave an IC50 of 3.25 µM. `O=C(N[C@H]1C[C@H]2CN(C(=O)c3ccc(Cl)c(F)c3)CCN2C1)c1cccc(C(F)(F)F)c1` [Example 15, N-[(7S,8aS)-2-(4-chloro-3-fluorobenzoyl)octahydropyrrolo[1,2-a]pyrazin-7-yl]-3-(trifluoromethyl)benzamide] was tested, and the IC50 was 4.29 µM. For `CC(C)(C)C(=O)N1CCN2C[C@@H](NC(=O)c3cccc(C(F)(F)F)c3)C[C@H]2C1` [Example 16, N-[(7S,8aS)-2-(2,2-dimethylpropanoyl)octahydropyrrolo[1,2-a]pyrazin-7-yl]-3-(trifluoromethyl)benzamide], the IC50 was 22.8 µM.
